{"source": "the supplement of paper PMC8728848", "assay_in_all_cases": "glycan array binding signal (z-score within array); higher = stronger binding", "settings_in_all_cases": "glycan notation: IUPAC condensed, linker removed", "key": {"[1]": {"biological_target": "Gal(b1-4)GlcNAc(b1-3)Gal(b1-4)GlcNAc(b1-3)Gal(b1-4)GlcNAc(b1-3)Gal(b1-4)GlcNAc(b1-2)Man(a1-3)[Gal(b1-4)GlcNAc(b1-3)Gal(b1-4)GlcNAc(b1-3)Gal(b1-4)GlcNAc(b1-3)Gal(b1-4)GlcNAc(b1-2)Man(a1-6)]Man(b1-4)GlcNAc(b1-4)[Fuc(a1-6)]GlcNAc", "summary_of_the_method": "(§1)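 Negative Z-scores can be read as non-binding. The Z-score is calculated within each array and then averaged across arrays of one protein sequence at different concentrations or buffers and across linkers. Arrays, 3228 in all, were curated from the Consortium for Functional Glycomics database and kept only where the protein sequence was available.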"}, "[2]": {"biological_target": "Gal(b1-4)GlcNAc(b1-3)Gal(b1-4)GlcNAc(b1-3)Gal(b1-4)GlcNAc(b1-3)Gal(b1-4)GlcNAc(b1-2)[Gal(b1-4)GlcNAc(b1-3)Gal(b1-4)GlcNAc(b1-3)Gal(b1-4)GlcNAc(b1-3)Gal(b1-4)GlcNAc(b1-6)]Man(a1-6)[Gal(b1-4)GlcNAc(b1-3)Gal(b1-4)GlcNAc(b1-3)Gal(b1-4)GlcNAc(b1-3)Gal(b1-4)GlcNAc(b1-2)Man(a1-3)]Man(b1-4)GlcNAc(b1-4)[Fuc(a1-6)]GlcNAc", "summary_of_the_method": "as §1"}, "[3]": {"biological_target": "Gal(b1-4)GlcNAc(b1-3)Gal(b1-4)GlcNAc(b1-3)Gal(b1-4)GlcNAc(b1-3)Gal(b1-4)GlcNAc(b1-3)Gal(b1-4)GlcNAc(b1-2)Man(a1-3)[Gal(b1-4)GlcNAc(b1-3)Gal(b1-4)GlcNAc(b1-3)Gal(b1-4)GlcNAc(b1-3)Gal(b1-4)GlcNAc(b1-3)Gal(b1-4)GlcNAc(b1-2)Man(a1-6)]Man(b1-4)GlcNAc(b1-4)GlcNAc", "summary_of_the_method": "as §1"}, "[4]": {"biological_target": "Gal(b1-4)GlcNAc(b1-3)Gal(b1-4)GlcNAc(b1-3)Gal(b1-4)GlcNAc(b1-3)Gal(b1-4)GlcNAc(b1-3)Gal(b1-4)GlcNAc(b1-2)Man(a1-3)[Gal(b1-4)GlcNAc(b1-3)Gal(b1-4)GlcNAc(b1-3)Gal(b1-4)GlcNAc(b1-3)Gal(b1-4)GlcNAc(b1-3)Gal(b1-4)GlcNAc(b1-2)Man(a1-6)]Man(b1-4)GlcNAc(b1-4)[Fuc(a1-6)]GlcNAc", "summary_of_the_method": "as §1"}, "[5]": {"biological_target": "Gal(b1-4)GlcNAc(b1-3)Gal(b1-4)GlcNAc(b1-3)Gal(b1-4)GlcNAc(b1-3)Gal(b1-4)GlcNAc(b1-3)Gal(b1-4)GlcNAc(b1-2)[Gal(b1-4)GlcNAc(b1-3)Gal(b1-4)GlcNAc(b1-3)Gal(b1-4)GlcNAc(b1-3)Gal(b1-4)GlcNAc(b1-3)Gal(b1-4)GlcNAc(b1-6)]Man(a1-6)[Gal(b1-4)GlcNAc(b1-3)Gal(b1-4)GlcNAc(b1-3)Gal(b1-4)GlcNAc(b1-3)Gal(b1-4)GlcNAc(b1-3)Gal(b1-4)GlcNAc(b1-2)Man(a1-3)]Man(b1-4)GlcNAc(b1-4)[Fuc(a1-6)]GlcNAc", "summary_of_the_method": "as §1"}, "[6]": {"biological_target": "Gal(b1-4)GlcNAc(b1-3)Gal(b1-4)GlcNAc(b1-3)Gal(b1-4)GlcNAc(b1-3)Gal(b1-4)GlcNAc(b1-3)Gal(b1-4)GlcNAc(b1-3)Gal(b1-4)GlcNAc(b1-2)Man(a1-3)[Gal(b1-4)GlcNAc(b1-3)Gal(b1-4)GlcNAc(b1-3)Gal(b1-4)GlcNAc(b1-3)Gal(b1-4)GlcNAc(b1-3)Gal(b1-4)GlcNAc(b1-3)Gal(b1-4)GlcNAc(b1-2)Man(a1-6)]Man(b1-4)GlcNAc(b1-4)GlcNAc", "summary_of_the_method": "as §1"}, "[7]": {"biological_target": "Gal(b1-4)GlcNAc(b1-3)Gal(b1-4)GlcNAc(b1-3)GalNAc", "summary_of_the_method": "as §1"}, "[8]": {"biological_target": "Gal(b1-4)GlcNAc(b1-3)Gal(b1-4)GlcNAc(b1-3)[Gal(b1-4)GlcNAc(b1-3)Gal(b1-4)GlcNAc(b1-6)]GalNAc", "summary_of_the_method": "as §1"}, "[9]": {"biological_target": "Gal(b1-4)GlcNAc(b1-3)Gal(b1-4)GlcNAc(b1-6)[Gal(b1-3)]GalNAc", "summary_of_the_method": "as §1"}, "[10]": {"biological_target": "Gal(b1-4)GlcNAc(b1-3)Gal(b1-4)[Fuc(a1-3)]GlcNAc(b1-3)Gal(b1-4)[Fuc(a1-3)]GlcNAc", "summary_of_the_method": "as §1"}, "[11]": {"biological_target": "Gal(b1-4)GlcNAc(b1-3)GalNAc", "summary_of_the_method": "as §1"}, "[12]": {"biological_target": "Gal(b1-4)GlcNAc(b1-3)[Fuc(a1-3)GlcNAc(b1-6)]Gal(b1-4)Glc", "summary_of_the_method": "as §1"}, "[13]": {"biological_target": "Gal(b1-4)GlcNAc(b1-3)[Gal(b1-4)GlcNAc(b1-6)]Gal(b1-4)GlcNAc", "summary_of_the_method": "as §1"}, "[14]": {"biological_target": "Gal(b1-4)GlcNAc(b1-3)[GlcNAc(b1-6)]Gal(b1-4)GlcNAc", "summary_of_the_method": "as §1"}, "[15]": {"biological_target": "Gal(b1-4)GlcNAc(b1-6)Gal(b1-4)GlcNAc", "summary_of_the_method": "as §1"}, "[16]": {"biological_target": "Gal(b1-4)GlcNAc(b1-6)GalNAc", "summary_of_the_method": "as §1"}, "[17]": {"biological_target": "Gal(b1-4)GlcNAc(b1-6)[Gal(b1-3)]GalNAc", "summary_of_the_method": "as §1"}, "[18]": {"biological_target": "Gal(b1-4)GlcNAc(b1-6)[Gal(b1-4)GlcNAc(b1-3)]GalNAc", "summary_of_the_method": "as §1"}, "Gal(b1-4)GlcNAc6P": {"biological_target": "Gal(b1-4)GlcNAc6P", "summary_of_the_method": "as §1"}, "Gal(b1-6)Gal": {"biological_target": "Gal(b1-6)Gal", "summary_of_the_method": "as §1"}, "Gal3S(b1-3)GalNAc": {"biological_target": "Gal3S(b1-3)GalNAc", "summary_of_the_method": "as §1"}, "Gal3S(b1-3)GlcNAc": {"biological_target": "Gal3S(b1-3)GlcNAc", "summary_of_the_method": "as §1"}, "[19]": {"biological_target": "Gal3S(b1-3)[Fuc(a1-4)]GlcNAc", "summary_of_the_method": "as §1"}}, "note": "Some of the results follow."}
{"binder": "PLU (Photorhabdus luminiscence) (protein) HHHHHHENLYFQSSIVFASIDPRSNPLQTSSQNYVDIPGLKLDVSKYSNSPCLTALITLNIPTPYASGNNFPGGNFAIVTDQGEQLAYGGFTYSSKIPENSGRMPFTLVARYSLASNVSTIKAQWSNIRGSTVHIDSYASISAVIQCNQLV", "values": [{"measurement": "glycan array binding signal (z-score)", "setting": "[1]", "result": -0.203}, {"measurement": "glycan array binding signal (z-score)", "setting": "[2]", "result": -0.152}, {"measurement": "glycan array binding signal (z-score)", "setting": "[3]", "result": -0.254}, {"measurement": "glycan array binding signal (z-score)", "setting": "[4]", "result": -0.211}, {"measurement": "glycan array binding signal (z-score)", "setting": "[5]", "result": -0.211}, {"measurement": "glycan array binding signal (z-score)", "setting": "[6]", "result": -0.163}, {"measurement": "glycan array binding signal (z-score)", "setting": "[7]", "result": -0.042}, {"measurement": "glycan array binding signal (z-score)", "setting": "[8]", "result": -0.111}, {"measurement": "glycan array binding signal (z-score)", "setting": "[9]", "result": -0.24}, {"measurement": "glycan array binding signal (z-score)", "setting": "[10]", "result": -0.262}, {"measurement": "glycan array binding signal (z-score)", "setting": "[11]", "result": -0.254}, {"measurement": "glycan array binding signal (z-score)", "setting": "[12]", "result": -0.227}, {"measurement": "glycan array binding signal (z-score)", "setting": "[13]", "result": -0.268}, {"measurement": "glycan array binding signal (z-score)", "setting": "[14]", "result": -0.329}, {"measurement": "glycan array binding signal (z-score)", "setting": "[15]", "result": -0.221}, {"measurement": "glycan array binding signal (z-score)", "setting": "[16]", "result": -0.243}, {"measurement": "glycan array binding signal (z-score)", "setting": "[17]", "result": -0.284}, {"measurement": "glycan array binding signal (z-score)", "setting": "[18]", "result": -0.197}, {"measurement": "glycan array binding signal (z-score)", "setting": "Gal(b1-4)GlcNAc6P", "result": -0.27}, {"measurement": "glycan array binding signal (z-score)", "setting": "Gal(b1-6)Gal", "result": -0.313}, {"measurement": "glycan array binding signal (z-score)", "setting": "Gal3S(b1-3)GalNAc", "result": -0.22}, {"measurement": "glycan array binding signal (z-score)", "setting": "Gal3S(b1-3)GlcNAc", "result": -0.305}, {"measurement": "glycan array binding signal (z-score)", "setting": "[19]", "result": -0.26}]}
